About 14,000 (4.5%) of roughly 310,000 compounds showed an effect of 50% or more. The effect is printed as a negative number. The list shows a part of the results.
Each molecule was assayed against human ether-à-go-go-related gene (hERG) potassium channel (human, UniProt Q12809) (assay: primary screen, population patch clamp on CHO cells stably expressing hERG).
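Further: peak tail current of the secondary pulse compared with the same well before compound.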

human ether-à-go-go-related gene (hERG) potassium channel, sequence (Q12809 whole entry, looked up): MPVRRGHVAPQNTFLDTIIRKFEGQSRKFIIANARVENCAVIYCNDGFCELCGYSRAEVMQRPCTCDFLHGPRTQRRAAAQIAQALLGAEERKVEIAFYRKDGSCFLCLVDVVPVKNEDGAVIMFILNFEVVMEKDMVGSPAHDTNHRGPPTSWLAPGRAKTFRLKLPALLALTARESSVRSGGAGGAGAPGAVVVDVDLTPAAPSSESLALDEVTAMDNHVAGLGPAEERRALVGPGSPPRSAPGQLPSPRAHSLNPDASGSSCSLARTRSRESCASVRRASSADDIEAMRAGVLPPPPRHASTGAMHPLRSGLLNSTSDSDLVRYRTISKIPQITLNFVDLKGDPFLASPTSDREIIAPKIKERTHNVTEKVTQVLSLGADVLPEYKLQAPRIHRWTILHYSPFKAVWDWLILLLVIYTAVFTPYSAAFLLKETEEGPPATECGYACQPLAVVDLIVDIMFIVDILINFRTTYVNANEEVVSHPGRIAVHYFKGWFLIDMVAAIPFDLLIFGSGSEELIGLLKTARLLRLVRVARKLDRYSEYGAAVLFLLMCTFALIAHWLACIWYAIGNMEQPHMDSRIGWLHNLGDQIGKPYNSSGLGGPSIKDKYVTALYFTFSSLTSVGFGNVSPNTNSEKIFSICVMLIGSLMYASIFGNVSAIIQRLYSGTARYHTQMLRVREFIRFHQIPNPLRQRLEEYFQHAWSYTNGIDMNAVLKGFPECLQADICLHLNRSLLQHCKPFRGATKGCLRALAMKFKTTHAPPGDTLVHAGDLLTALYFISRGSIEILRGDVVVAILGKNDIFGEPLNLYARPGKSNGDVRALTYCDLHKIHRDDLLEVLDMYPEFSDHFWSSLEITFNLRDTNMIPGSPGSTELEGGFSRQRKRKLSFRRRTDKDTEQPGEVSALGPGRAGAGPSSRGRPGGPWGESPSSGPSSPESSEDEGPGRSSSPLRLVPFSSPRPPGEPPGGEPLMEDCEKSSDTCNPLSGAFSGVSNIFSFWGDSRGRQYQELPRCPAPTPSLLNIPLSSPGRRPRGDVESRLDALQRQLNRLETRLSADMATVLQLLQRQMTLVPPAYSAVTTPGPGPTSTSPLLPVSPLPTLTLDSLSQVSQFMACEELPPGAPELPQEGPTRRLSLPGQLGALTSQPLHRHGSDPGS

| Compound | hERG current change (%, negative = inhibition) at 10uM [%] |
| --- | --- |
| Cc1ccc(NC(=O)Cn2nnc(C(=O)NCc3cccs3)c2N)cc1F | 19.1 |
| COC(=O)c1cc2ccccc2c(-c2c(OC)c(C(=O)OC)cc3ccccc23)c1OC | -8.66 |
| S=c1[nH]nc(-c2cccnc2)n1-c1ccc2c(c1)OCCO2 | 13.2 |
| COc1cccc2cc(S(=O)(=O)c3ccccc3)c(=Nc3ccc4c(c3)OCCO4)oc12 | 3.79 |
| O=C(Nc1ccc(-c2ccc3nncn3n2)cc1)c1ccc(Br)o1 | -9.75 |
| O=C(N/N=C/c1cc(Br)ccc1OC(=O)c1ccc(Br)cc1)c1ccncc1 | -1.47 |
| O=C(Nc1ccc(F)cc1)c1cccnc1 | 4.76 |
| C[C@H]1CC[C@]2(O[C@H](CCO)C[C@@H](O)[C@@H]2O)O1 | 2.21 |
| CC(Sc1ccc(Cl)cc1)C(=O)Nc1ccccc1C(=O)N1CCOCC1 (centres unmarked) | 0.248 |
| Cc1ccc(CCNC(=O)CN(c2cc(C)cc(C)c2)S(=O)(=O)c2c(C)noc2C)cc1 | 23 |
| CCC(C)(C(=O)NC1CCCCC1)N(Cc1ccco1)C(=O)CC1NC(=O)NC1=O (centres unmarked) | 5.88 |
| C/C(N)=C(/C#N)C(=O)COC(=O)CNS(=O)(=O)c1ccc(F)c(F)c1F | 16.2 |
| CCCOc1ccc(C(=O)NCCN2CCOCC2)cc1.Cl | 11.1 |
| Cc1ccc(S(=O)(=O)N2CCCCC2)cc1C(=O)NCCN1CCOCC1 | -0.54 |
| Oc1ccc(Cl)cc1/C=N/c1nc2ccccc2[nH]1 | 11.7 |
| c1ccc(Nc2nnc(-c3cccc4ccccc34)o2)cc1 | 6.85 |
| CCOC(=O)CSc1nc2cc(C(=O)NCc3ccco3)ccc2c(=O)n1C1CCCCC1 | 6.93 |
| Cc1c(C)c2ccc(O[C@@H]3O[C@H](CO)[C@@H](O)[C@H](O)[C@H]3O)c(C)c2oc1=O | 11.7 |
| Cc1nc(CC(C)C)cc(C(=O)N2CCCC(CNS(=O)(=O)c3cccs3)C2)n1 (centres unmarked) | -20.8 |
| Cc1ccccc1-c1cc(C(=O)O)nn1CC1CC(c2cccc([N+](=O)[O-])c2)=NO1 (centres unmarked) | 19.7 |
| CC(NC(=O)COC(=O)COc1cccc2c1OC(C)(C)C2)c1ccccc1 (centres unmarked) | 6.98 |
| S=c1[nH]ccn1-c1cccc(Cl)c1Cl | 25.7 |
| C/C(=N/NC(=O)C(=O)N/N=C(/C)c1ccccc1)c1ccccc1 | 57.2 |

Reference: PMC4336329 (PLoS ONE, 2015)
